Consider 49 compounds from PubChem BioAssay AID1645882 (National Center for Advancing Translational Sciences (NCATS), 2021).

In all, about 16,000 compounds went through this assay and about 120 (0.75%) were called active. Another 4% or so got no clear call; they are omitted. Calls follow the shape of the dose curve; as a rule, active = well fitted inhibition curve with a large enough effect; inconclusive = small, poorly fitted or top-dose-only effect; inactive = no such curve, though single readings can be large or run the other way. Some of the results follow. Where a SMILES comes first, the peptide text is derived from it. [ ]: non-standard residue; d: D form.

The target of this assay is Rap guanine nucleotide exchange factor 3 (Homo sapiens) (UniProt O95398). In words: Validation qHTS for antagonist of cAMP-regulated guanine nucleotide exchange factor 3 (EPAC1).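 Also: plate controls were DMSO for no effect and ATA control for full effect; nearly all actives have a fitted effect of over 75% in size.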 The settings on record: EPAC1 Rap1B-BODIPY-GDP exchange, fluorescence; series mostly up to 150 µM; activity change, negative = inhibition: at the top concentration. In short, it runs like this: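 Nucleotide exchange followed as fluorescence loss when BODIPY-GDP leaves Rap1B (480 nm excitation, 540 nm emission), read at 5 min intervals over 30 min. Reaction: 100 nM EPAC1, 250 nM RAP1B-BODIPY-GDP, 50 uM GDP; ATA and DMSO define normalization.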
Sequence of UniProt O95398 (O95398 whole entry, looked up): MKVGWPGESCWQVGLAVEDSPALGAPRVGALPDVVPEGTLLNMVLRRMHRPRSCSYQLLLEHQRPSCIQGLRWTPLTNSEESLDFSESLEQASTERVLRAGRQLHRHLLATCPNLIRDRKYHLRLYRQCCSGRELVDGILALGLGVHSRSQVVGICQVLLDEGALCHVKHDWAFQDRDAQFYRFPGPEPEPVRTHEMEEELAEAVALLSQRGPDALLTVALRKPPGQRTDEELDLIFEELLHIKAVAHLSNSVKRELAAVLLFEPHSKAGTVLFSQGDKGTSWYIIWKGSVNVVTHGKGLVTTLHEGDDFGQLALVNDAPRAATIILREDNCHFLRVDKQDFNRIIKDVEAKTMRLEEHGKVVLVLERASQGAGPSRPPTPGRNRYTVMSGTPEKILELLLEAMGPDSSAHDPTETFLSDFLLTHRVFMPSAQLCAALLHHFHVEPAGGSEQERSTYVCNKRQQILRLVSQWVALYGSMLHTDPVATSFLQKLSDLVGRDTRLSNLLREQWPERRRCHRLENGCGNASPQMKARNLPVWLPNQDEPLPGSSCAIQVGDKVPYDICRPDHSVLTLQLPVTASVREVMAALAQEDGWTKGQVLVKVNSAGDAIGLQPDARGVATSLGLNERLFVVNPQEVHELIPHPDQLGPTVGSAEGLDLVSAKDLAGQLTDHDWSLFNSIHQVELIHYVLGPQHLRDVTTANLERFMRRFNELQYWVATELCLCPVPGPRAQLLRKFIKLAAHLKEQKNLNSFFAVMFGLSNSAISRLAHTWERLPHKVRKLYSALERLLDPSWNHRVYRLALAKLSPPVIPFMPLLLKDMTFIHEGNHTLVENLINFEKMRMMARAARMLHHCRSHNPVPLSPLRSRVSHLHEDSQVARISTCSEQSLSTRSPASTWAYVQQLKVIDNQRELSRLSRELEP
As for `Cc1noc(C)c1C(=O)N1CCC[C@@]2(CCN(C(=O)Nc3ccccc3)C2)C1`, the “activity change, negative = inhibition” value was inactive: 9.69%.
To `COc1ccc(CNc2nc(-c3c(C)noc3C)nc3ccccc23)c(OC)c1` belongs inactive: -8.14%.
Turning to `COCC(=O)N1CCC2(CCCN(Cc3ccccc3OC)C2)CC1`, the “activity change, negative = inhibition” value was inactive: 9.54%.
To `COc1cccc(CN2CCOc3ccc(C(O)c4cccnc4)cc3C2)c1` (centres undefined) belongs inactive: 12.4%.
To `O=c1cc[nH]c(=O)[nH]1` belongs inactive: 8.88%; to `CCNc1ncc2nc(-c3cn(C)c4ccccc34)c(=O)n(C)c2n1`, inactive: 27.1%; to `Cc1ccc2c(c1)CN(C(=O)CC(c1ccccc1)c1ccco1)CC(C)O2` (centres undefined), inactive: 10.8%.
The entry for `O=C(Nc1ccc([N+](=O)[O-])cc1Cl)c1cc(Cl)ccc1O` is “inactive”.
Consider `CC(C)NC(=O)N1CC2(CCN(C(=O)c3ccco3)CC2)C1`, for which the “activity change, negative = inhibition” value was inactive: 6.45%.
To `CC(=O)c1ccccc1-c1ccc2c(c1)CC(CNC(=O)c1ccnc(Cl)c1)O2` (centres undefined) belongs inactive: -1.03%.
On to `CC(=O)Nc1cc(C(=O)N2CCN(c3ccccc3)CC2C)cc2ncn(CCc3ccccn3)c12` (centres undefined), for which the “activity change, negative = inhibition” value was inactive: 10.2%.
To `O=Cc1ccc(N2CCOCC2)cc1` belongs inactive: 14.5%; to `COc1ccccc1CNc1ncnc2sc(C(=O)N(C)C(C)C)c(C)c12`, inactive: 7.6%; to `Cn1cccc1C(=O)N1CCC2(CCCN(Cc3ccccc3)C2)CC1`, inactive: -20.4%.
To `CCOc1ccc(Cc2nccc3cc(OCC)c(OCC)cc23)cc1OCC` belongs inactive: -5.54% [at 75.8 µM]; to `COCc1ccc(CN2CCOc3c(cc(-c4ccc(SC)cc4)cc3OC)C2)o1`, inactive: -17.1%; to `O=C(O)C(Oc1ccc2ccc(=O)oc2c1)c1ccccc1` (centres undefined), inactive: 12%.
To `NCCCCC(N)C(=O)NC(Cc1ccc(O)cc1)C(=O)NC(CCCCN)C(=O)O` (stereo not drawn) (H-Lys-Tyr-Lys-OH; configuration not given here) belongs inactive: -2.41%; to `Fc1ccc(Nc2nc(-c3cccnc3)nc3ccccc23)cc1`, inactive: 9.33%.
In the case of `C#C[C@]1(O)CC[C@H]2[C@@H]3CCC4=Cc5oncc5C[C@]4(C)[C@H]3CC[C@@]21C`, the “activity change, negative = inhibition” value was inactive: 8.68%.
To `O=C(NC[C@H](O)c1ccccc1)c1ccccc1` belongs inactive: -5.24%; to `COc1ccccc1N1CCN(c2nc(CNC(=O)c3ccc(C)c(C)c3)nc3ccccc23)CC1`, inactive: 2.89%; to `COc1ccc(CNc2ncnc3ccc(-c4ccoc4)cc23)c(OC)c1`, inactive: 3.88%.
To `CS(C)(=O)=O` belongs inactive: 6.26%.
The figure for `CC(=O)SCC(CC(=O)c1ccc(C)cc1)C(=O)O` (centres undefined) is inactive: 33.1%; for `N#Cc1cccc(NC(=O)N2CCCC3(CCN(C(=O)c4cnccn4)CC3)C2)c1` it is inactive: 15.7%; for `CCNc1ncc2nc(C)c(=O)n(C)c2n1` it is inactive: 15.3%.
`CCOC(=O)[C@@H](C)NS(=O)(=O)N(Cc1ccccc1)[C@H](C(=O)OC)C(C)C`: the “activity change, negative = inhibition” value was inactive: 0.502%.
The figure for `CS(=O)(=O)OCCCNCCCOS(C)(=O)=O` is inactive: 27.9%; for `COC(=O)N1CCC2(CCN(Cc3ccccc3OC)CC2)CC1` it is inactive: 16.2%.
To `COc1ccc(-c2cc(=O)c3c(OC)c(OC)c(OC)c(OC)c3o2)cc1` belongs inactive: -2.36%.
To `O=C(c1ccc(F)c(F)c1)N1CCOc2ccc(CN3CCN(Cc4ccccn4)CC3)cc2C1` belongs inactive: 5.86%.
Regarding `O=C(NCCc1ccccc1)[C@@H]1CC=C[C@@H]2CCN(Cc3ccccc3)C(=O)[C@@H]21`, the “activity change, negative = inhibition” value is inactive: 1.38%.
Regarding `OCCO[C@@H]1[C@@H](O)[C@H](O)[C@@H](CO)O[C@@H]1O`, the “activity change, negative = inhibition” value was inactive: 13.7%.
To `CSCC[C@H](C=O)NC(=O)[C@H](CC(C)C)NC(=O)[C@H](CC(C)C)NC(C)=O` (Ac-Leu-Leu-[dM]-aldehyde) belongs inactive: 12.8%; to `COc1cc(-c2c(OC)cccc2OC)cc2c1OCCN(C(=O)CCn1nc(C)cc1C)C2`, inactive: 12.7%.
As for `CCCCCCCC[N+](C)(C)CCCCCCCC`, the activity change, negative = inhibition entry is “inactive”.
To `Cc1c(C(=O)N2CCN(C(C)C)CC2)sc2ncnc(NCc3ccco3)c12` belongs inactive: 24.4%.
The figure for `COc1ccc(C(=O)N2CCC3(CC2)CCN(c2ccncc2)CC3)cc1` is inactive: 19%; for `COc1cccc(-c2cc(NCc3cccc(C)c3)ncn2)c1` it is inactive: -10.4%; for `CCCOC(=O)C1=C(C)CS[C@@H]2[C@H](NC(=O)COc3ccccc3)C(=O)N12` it is inactive: -10.5%.
To `COc1ccc2ccccc2c1CN1CCc2nnc(CNC(=O)c3cccc(F)c3)n2CC1` belongs inactive: 6.59%; to `CC(=O)N1CCC[C@@]2(CCN(c3ncccn3)C2)C1`, inactive: 13.3%; to `CC12CC3CC(C)(C1)CC(N)(C3)C2`, “inactive”.
On to `Cc1ccccc1-c1nc(N2CCOCC2)c2ccccc2n1`, for which the “activity change, negative = inhibition” value was inactive: 11.9%.
The figure for `COc1ccc(-c2nc3cnc(N4CCN(C)CC4)nc3n(Cc3ccc(F)cc3)c2=O)cc1` is inactive: 25.1%.
To `Cc1cnc(CNc2ccnc(-c3cccc(NS(C)(=O)=O)c3)n2)cn1` belongs inactive: -5.49%; to `COc1ccc(CCN(C)CCCOc2ccc(S(=O)(=O)c3[nH]c4ccccc4c3C(C)C)cc2)cc1OC`, inactive: -24.8%; to `CC(C)=CCc1c(O)cc2oc(C)cc(=O)c2c1O`, inactive: 8.94%.
